In article PMC10691697, “A small molecule exerts selective antiviral activity by targeting the human cytomegalovirus nuclear egress complex” (PLOS Pathogens, 2023):

Assays:
MCMV M50-M53 = format: binding; details: for normalized FRET signal relative to control without inhibitor: MCMV M50-M53, replicates
in vitro = format: cell-based, human; details: human, read-out: CC50, cytotoxicity on HFF
Protocol: Cytotoxicities of various compounds were determined using a WST-1 assay that measures metabolic activity (Roche), and CC50’s were calculated as described previously.

pp28 expression = test system: pp28 expression; design: method as in PMID 28100301; details: 1 μM; cited from earlier work
HSV-1 strain KOS = format: cell-based, herpes simplex virus 1
Protocol: Standard plaque reduction assays used to assess the antiviral activity of GK1 and GK2 against HSV in HFF cells were performed as described with minor modifications. Briefly, 1x10^5 HFF cells in each well of a 24-well plate were infected with ~ 100 PFU/well of HSV-1 strain KOS. After 2h, the inocula was removed and DMEM containing methylcellulose, 1% DMSO, and various concentrations of GK1 or GK2 was added. After two days, plaques were stained with crystal violet and counted. ED50’s for GK1 or GK2 were calculated as described above.

[1] = test system: co-localization of UL53 with UL50 at the nuclear rim; format: cell-based; details: 10 μM, WT-infected cells, MOI 1, 72 hpi
HSV-1 P30-UL42 = molecular target: T1, HSV-1 P30-UL42 (Human herpesvirus 1, UniProt P10226); experiment: biochemical; format: binding
T1 construct: containing UL42 residues 1–340; GST (N); glycine-serine linker of the modified pGEX6p plasmid (presence inferred) (N); made in house; host or cells: E. coli (UL42: pLysS BL21)
T1 sequence (P10226 1-340): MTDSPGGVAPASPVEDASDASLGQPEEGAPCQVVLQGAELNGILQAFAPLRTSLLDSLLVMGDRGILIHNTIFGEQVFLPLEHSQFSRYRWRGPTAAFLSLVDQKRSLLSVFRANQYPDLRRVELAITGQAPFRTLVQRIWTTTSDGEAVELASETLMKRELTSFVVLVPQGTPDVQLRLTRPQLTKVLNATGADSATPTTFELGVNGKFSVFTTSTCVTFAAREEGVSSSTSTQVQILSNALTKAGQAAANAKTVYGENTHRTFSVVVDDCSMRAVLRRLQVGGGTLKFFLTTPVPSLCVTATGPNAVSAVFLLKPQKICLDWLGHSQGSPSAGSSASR

HCMV UL50-UL53 = molecular target: T2, HCMV UL50-UL53 (Human cytomegalovirus, UniProt P16794); experiment: biochemical; format: binding
T2 construct: GST (N, cleaved yes); 13-residue glycine-serine linker […]; made in house; host or cells: E. coli BL21 (DE3) RIPL
T2 sequence (P16794 50-292): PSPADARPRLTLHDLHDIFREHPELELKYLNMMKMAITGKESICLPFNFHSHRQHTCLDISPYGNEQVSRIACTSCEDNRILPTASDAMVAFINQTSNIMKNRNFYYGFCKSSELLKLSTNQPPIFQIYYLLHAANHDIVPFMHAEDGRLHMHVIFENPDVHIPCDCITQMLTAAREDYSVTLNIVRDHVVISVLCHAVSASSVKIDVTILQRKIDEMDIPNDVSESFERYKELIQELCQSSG

[2] = test system: HCMV expressing GFP (53-F BADGFP)

Compound: C=CC(=O)Nc1cccc(Oc2ccnc3[nH]ccc23)c1 [GK2]
- inhibition in HTRF assay for interactions of mouse cytomegalovirus NEC subunits (MCMV M50-M53): did not show inhibition
- normalized FRET signal relative to control without inhibitor (MCMV M50-M53; 0.20 μM compound): 99.0000 (2×) and 97.0000
- normalized FRET signal relative to control without inhibitor (MCMV M50-M53; 1.56 μM compound): 98.0000
- normalized FRET signal relative to control without inhibitor (MCMV M50-M53; 3.13 μM compound): 99.0000 and 97.0000 (2×)
- normalized FRET signal relative to control without inhibitor (MCMV M50-M53; 6.25 μM compound): 98.0000
- normalized FRET signal relative to control without inhibitor (MCMV M50-M53; 50.00 μM compound): 100.0000 and 96.0000 and 97.0000
- CC50 (in vitro; WST-1, six days, in parallel with automated plaque reduction assay): 21 µM
- CC50 (in vitro; WST-1, two days, in parallel with HSV-1 plaque reduction assay): 36 µM
- inhibition of pp28 expression in a screen (pp28 expression): did not score as positive
- ED50, anti-HSV-1 (HSV-1 strain KOS; HFF, standard plaque reduction assay, 2 dpi): 12 µM
- cytotoxic potency relative to anti-HSV-1 potency (HSV-1 strain KOS; two-day WST-1 vs HSV-1 plaque reduction): 3- to 4 fold
- subset of cells with substantial nucleoplasmic UL53 staining [1]: ~ 20%
- remaining activity at 1.56 µM (HSV-1 P30-UL42; HSV1 P30-UL42, 1.56 μM compound, replicates, read-out: normalized FRET signal relative to control without inhibitor): 99%
- remaining activity at 3.13 µM (HSV-1 P30-UL42; HSV1 P30-UL42, 3.13 μM compound, replicates, read-out: normalized FRET signal relative to control without inhibitor): 99%
- remaining activity at 6.25 µM (HSV-1 P30-UL42; HSV1 P30-UL42, 6.25 μM compound, replicates, read-out: normalized FRET signal relative to control without inhibitor): 106%
- remaining activity at 50 µM (HSV-1 P30-UL42; HSV1 P30-UL42, 50.00 μM compound, replicates, read-out: normalized FRET signal relative to control without inhibitor): 89%
- remaining activity at 25 µM (HSV-1 P30-UL42; HSV1 P30-UL42, […] compound, replicates, read-out: normalized FRET signal relative to control without inhibitor): 96%
- inhibition in the HSV-1 P30-UL42 counterscreen assay (HSV-1 P30-UL42; all concentrations tested (up to 50 μM)): did not show meaningful inhibition
- reduction of NEC subunit interactions in the HTRF assay (HCMV UL50-UL53; 10 μM): ~ 2.5 fold
- remaining activity at 0.2 µM (HCMV UL50-UL53; WT UL50-UL53, 0.20 μM compound, replicates, read-out: normalized FRET signal relative to control without inhibitor): 91%
- ED50, HCMV plaque formation ([2]; HFF, automated plaque reduction assay, 6 dpi): 4 µM
- CC50/ED50 ([2]; anti-HCMV ED50 (APRA) and parallel WST-1 CC50): 5.4

Where “and” joins values, the source holds several entries; their conditions need not be identical. Identical values can stand only once. Like-named read-outs stand apart in the source and are kept apart here.
